The campaign covered roughly 45,000 compounds. About 200 (0.44%) were called active. Inconclusive results (about 7%) are left out. Calls follow the shape of the dose curve; as a rule, active = well fitted activation curve with a large enough effect; inconclusive = small, poorly fitted or top-dose-only effect; inactive = no such curve, though single readings can be large or run the other way. This is one part of the list.
experiment: qHTS of TDP-43 Inhibitors: NCGC Sytravon Library Screen; details: yeast TDP-43 toxicity rescue, BacTiter-Glo growth, 24 h; series mostly up to 46.1 µM; growth rescue (activation): at the top concentration; also: 0% is about no effect; nearly all actives have a fitted effect of over 55% in size
Text: The goal of this project is to identify new chemical probes capable of reversing the toxicity associated with TDP-43 which is associated with frontotemporal lobar degeneration and amyotrophic lateral sclerosis. These compounds will provide a complementary approach to deciphering the tangled mechanisms of toxicity and protection that we have uncovered through genome-wide genetic screens and are beginning to uncover in a large-scale proteomics analysis with mass spectroscopy. To this end, a miniaturized assay was developed to be screened against the Molecular Libraries Small Molecule Repository (MLSMR) to discover TDP-43 inhibitors. Please note that in the set-up this yeast-based assay compounds that inhibit as TDP-43, have a read-out as activators. NIH Chemical Genomics Center [NCGC] NIH Molecular Libraries Probe Centers Network [MLPCN] Assay Submitter (PI): Susan Lindquist, Whitehead Institute/MIT MLPCN Grant: R21 NS060957
Dispense 2.5 microL yeast galactose medium per 1536-well plate, pin compound, dispense 2.5 microL TDP-43 expressing yeast in galactose medium at OD600=0.02 (pregrown in raffinose medium to mid-log phase) per well, incubate for 24 hr at 30 deg C, and cell growth will be measured using 5 microL of Bactiter/Glo reagent to entire plate and read using Luminescence Protocol in ViewLux.

SMILES | growth rescue (activation)
CCCCN(C(=S)Nc1cccc(SC)c1)C1CCN(C(C)=O)CC1 | inactive: -0.0565%
O=C(O)c1ccc2c(c1)C(=O)N(c1ccccc1-c1ccccc1)C2=O | inactive: -9.21%
O=C(CN1CCN(c2ccc([N+](=O)[O-])cc2Cl)CC1)N1CCOCC1 | inactive: 5.63%
CCN(C(=O)C(C)OC(=O)c1nn(-c2ccccc2C(F)(F)F)cc1O)c1ccccc1 (stereo not drawn) | inactive: 1.35%
O=C(Nc1ccccc1)c1cc(C2CCCCN2C(=O)c2ccccc2)on1 (stereo not drawn) | inactive: 21.8%
C=CCN(c1ccccc1)S(=O)(=O)c1cccc(C(=O)NCc2ccco2)c1 | inactive: -11.3%
Cc1cc2nc(C(F)(F)F)[nH]c(=O)n2n1 | inactive: 4.61%
Cc1cc(C)c(C(N)=O)c(SCC(=O)c2cc(C)c(C)cc2C)n1 | inactive: 17.8%
CCOC(=O)/C=C/C(=O)OCC(=O)Nc1ccc(C)cc1 | inactive: 0.0725%
CCOC(=O)c1sc2ncn(C(C)C(=O)OCC)c(=O)c2c1C (stereo not drawn) | inactive: 18.1%
COc1cc2c(cc1OC)-c1cc(Nc3ccccc3C)nc(=O)n1CC2 | inactive: 5.57%
CC1CCCC(C)N1C(=O)COC(=O)c1ccco1 (stereo not drawn) | inactive: 17.6%
COc1cccc(C(O)c2nc(-c3ccc(N(C)C)cc3)cs2)c1 (stereo not drawn) | inactive: 29.6%
COc1cccc(C(=O)OCC(=O)NC2CCCc3ccccc32)c1O (stereo not drawn) | inactive: 11.7%
Cc1ccc(/C=C(\C#N)C(=O)NCCN2CCOCC2)cc1 | inactive: 0.707%
CCc1nc2ccc(C(=O)NCCCN3CCCC3=O)cn2c1N(CC)CCOC | inactive: 10.3%
COc1cc(/C=C/C(=O)O)cc(S(=O)(=O)NNC(=O)c2cc(C)oc2C)c1OC | inactive: -20.8%
Cc1ccc(CNC(=O)CCC2CCCN(Cc3cccc4c3OCO4)C2)o1 (stereo not drawn) | inactive: -1.08%
CC(C)n1c(SCC(=O)N2CCN(C(=O)c3ccco3)CC2)nc2c1c(=O)n(C)c(=O)n2C | inactive: 5.17%
CCOCCCNC(=O)c1c(N)n(-c2ccc(S(N)(=O)=O)cc2)c2nc3ccccc3nc12 | inactive: 10.4%
COC(=O)c1c(NC(=O)/C=C/c2ccc3c(c2)OCO3)sc(C)c1C | inactive: -5.5%
Cc1ccccc1-c1nc2c3c(-c4ccccc4)c(-c4ccccc4)oc3ncn2n1 | inactive: 7.43%

SMILES | growth rescue (activation)
CCc1sc(C(=O)NCCc2ccc(S(N)(=O)=O)cc2)cc1Br | inactive: -16.5%
Cc1ccc(CN2C(=O)CCC2C(=O)NCCN(CC(C)C)CC(C)C)cc1 (stereo not drawn) | inactive: 27%
CCC(C)NC(=O)Cn1cnc2sc(C)c(S(=O)(=O)N3CCN(c4ncccn4)CC3)c2c1=O (stereo not drawn) | inactive: 2.91%
CCn1nnc2cc(C(=O)O)ccc21 | inactive: 1.78%
Nc1nonc1C(=O)N1CCCC1 | inactive: 2.47%
CN(Cc1ccccc1)C(=O)c1ccc(Nc2nc(C(N)COCc3ccccc3)cs2)nc1 (stereo not drawn) | inactive: 12.1%
CC1CCCC(C)N1NC(=O)Cc1ccccc1 (stereo not drawn) | inactive: -20.7%
Cc1[nH]c2ccccc2c1/C=N/NC(=O)CNC(=O)c1ccc2c(c1)OCCO2 | inactive: -2.98%
C[C@H](NS(=O)(=O)c1ccc(Cl)cc1)C(=O)OCC(=O)NC(=O)Nc1ccc2c(c1)OCCO2 | inactive: 4.92%
CCc1cccc(CC)c1N(COC)C(=O)Cn1cnc2ccccc21 | inactive: 6.5%
CN(C)c1ccc(/C=C/c2ccncc2)cc1 | inactive: -21.1%
COc1ccc(/C=C/C(=O)NC(=S)Nc2ccc(S(=O)(=O)Nc3cc(C)on3)cc2)cc1 | inactive: -0.523%
N#C/C(=C\C=C\c1ccccc1)C(=O)N1CCCC1 | inactive: -13.4%
CCc1cc2c(=O)c(-c3nc(C)cs3)c(CCCC(=O)O)oc2cc1O | inactive: 7.18%
CC(=O)/C=C1\N(C)c2ccc(C)cc2C1(C)C | inactive: 11.4%
O=C(c1ccccc1)c1ccc(OCC(O)CNC2CCCc3ccccc32)cc1 (stereo not drawn) | inactive: -8.67%
O=C1OCC(c2ccc(Cl)s2)=C1c1ccccc1[N+](=O)[O-] | inactive: -16.4%
COCc1nnc(NC(=O)C2CC(=O)N(CCc3ccc(F)cc3)C2)s1 (stereo not drawn) | inactive: 0.994%
O=C(COC(=O)c1cccs1)Nc1cccc(S(=O)(=O)N2CCCCC2)c1 | inactive: 21.6%
Cc1cnc(C(=O)OCC(=O)Nc2cc(Cl)ccc2C#N)cn1 | inactive: 16.4%
CCOC(=O)c1ccc(NC(=S)NN)cc1 | inactive: 15.4%
O=C(CN1C(=O)NC2(CCCCC2)C1=O)Nc1cc(C(F)(F)F)ccc1N1CCOCC1 | inactive: 17.1%

SMILES | growth rescue (activation)
CC(C)CN(CC(C)C)S(=O)(=O)N1CCC(C(=O)NCc2ccc3c(c2)OCO3)CC1 | inactive: -1.71%
CC(OC(=O)c1cc(=O)[nH]c2ccccc12)C(=O)c1ccccc1 (stereo not drawn) | inactive: -5.27%
O=C(Nc1cccc(Cl)c1)Nc1cc(S(=O)(=O)N2CCCCC2)ccc1Cl | inactive: -0.561%
CC1CCc2sc(C(=O)OCC(=O)NCc3ccc(F)cc3)cc2C1 (stereo not drawn) | inactive: -2.78%
CC(OC(=O)C1=COCCO1)C(=O)c1ccc(Br)cc1 (stereo not drawn) | inactive: 0.719%
O=CN1CCN(C(=O)CN2C(=O)c3ccccc3C2=O)CC1 | inactive: 8.49%
O=C(CCc1ccccc1)NNC(=O)c1ccc(Br)cc1 | inactive: -21.4%
COc1ccc(OC)c(NC(=O)C(=S)NC2CCCCC2)c1 | inactive: 25%
Cn1cnnc1SCC(=O)N1CCC(Cc2ccccc2)CC1 | inactive: 22.7%
CCOc1ccccc1-n1c(=S)sc2c(=O)n(-c3ccccc3)c(=S)[nH]c21 | inactive: 3.27%
CN(C)C(=O)CSc1nc2cc(S(=O)(=O)N3CCOCC3)ccc2o1 | inactive: 3.18%
O=C(OCC(=O)N1CCCC1)c1ccc(O)cc1 | inactive: -1.09%
CN1CCN(S(=O)(=O)c2ccc(NC(=S)NC(=O)C3CCCCC3)cc2)CC1 | inactive: 1.17%
O=C(CCc1ccccc1)Nc1ncc2c(n1)CCCC2=O | inactive: -2.34%
O=C1C2C3C=CC(C4CC34)C2C(=O)N1/N=C/c1ccc([N+](=O)[O-])s1 (stereo not drawn) | inactive: 11.1%
CCc1nc(SCC(=O)Nc2cccc3ccccc23)[nH]c(=O)c1C | inactive: -6.15%
CCC(Sc1nc2cc(OC)c(OC)cc2c(=O)n1CCc1ccc(S(N)(=O)=O)cc1)C(=O)NCCOC (stereo not drawn) | inactive: 8.77%
Cc1nc2c(c(=O)n1CCC(C)C)c1nc3ccccc3nc1n2CC1CCCO1 (stereo not drawn) | inactive: -7.82%
Cc1c(C(=O)N/N=C/c2cccnc2)sc(N)c1C#N | inactive: 9.58%
CC1(C)OC(=O)C(=CSc2ccc(C(C)(C)C)cc2)C(=O)O1 | inactive: -0.58%
Cn1c(=O)c2c(-c3ccccc3)n(Cc3cccnc3)cc2n(C)c1=O | inactive: -7.72%
COc1ccc(CN2CCNC(=O)C2CC(=O)NCCSc2nccn2C)c(OC)c1 (stereo not drawn) | inactive: 8.28%

SMILES | growth rescue (activation)
COc1cc(C(=O)OCC(=O)N2CCOCC2)c([N+](=O)[O-])cc1OC | inactive: 4.46%
CN(Cc1ccccc1)C(=C(Cl)Cl)/C(=C1/NCCN1C)[N+](=O)[O-] | inactive: -3.7%
O=C1c2ccc(Oc3ccc([N+](=O)[O-])cc3)cc2C(=O)N1c1ccncc1 | inactive: 0.501%
CCN(CC)CCCN1C(=O)C(O)=C(C(=O)c2ccc(C)o2)C1c1ccc(C)o1 (stereo not drawn) | inactive: -9.41%
O=C1C=C(N2CCOCC2)c2ccccc2C1=O | inactive: -7.79%
O=C(O)C1CC=C(Cl)CC1C(=O)NCC1OCCc2ccccc21 (stereo not drawn) | inactive: 11%
COC(=O)C1(O)CC(C(C)C)=NN1C(=O)c1ccccc1 (stereo not drawn) | inactive: 4.18%
C/C(=N\NC(=S)NC1CCCCC1)c1ccccc1 | inactive: 17.2%
NS(=O)(=O)c1cc(C(=O)Nc2ccc3c(c2)OCCCO3)ccc1Cl | inactive: 6.37%
CCOc1cccc(/C=C/c2ccc3cccc(O)c3n2)c1O | inactive: 2.18%
Cc1ccc(OCC(=O)Nc2ccc3c(c2)OC(F)(F)O3)c([N+](=O)[O-])n1 | inactive: 6.62%
CCCNS(=O)(=O)c1cc2c(cc1Br)CCN2C(=O)CC | inactive: 0.283%
COc1ccc(CN(CC(=O)NCC2CCCO2)C(=O)CNS(=O)(=O)c2ccccc2)cc1 (stereo not drawn) | inactive: 5.37%
Cc1cccc(OCCCC(=O)Nc2ccc(S(N)(=O)=O)cc2)c1C | inactive: 6.31%
Cc1ccccc1C1c2[nH]c3ccccc3c2C[C@H]2C(=O)N(C3CC3)CC(=O)N12 (stereo partly drawn) | inactive: 1.42%
CC(=O)NS(=O)(=O)c1ccc(NC(=O)CSc2ccc(Cl)cc2)cc1 | inactive: -3.86%
Cc1ccc(Cn2c(O)c(N=NC(=S)Nc3ccccc3F)c3ccccc32)cc1 | inactive: 16.3%
O=C1CCCN2N=C(SCC(=O)Nc3ccc(F)cc3F)SC2=N1 | inactive: 14.9%
COc1cccc(NC(=O)Nc2ccccc2Br)c1 | inactive: 4.77%
C=CC[n+]1c(-c2ccc(C)cc2)csc1Nc1ccc(NC(C)=O)cc1 | inactive: 16.8%
COc1cc(/C=N/n2c(-c3cc(C)[nH]n3)n[nH]c2=S)cc(OC)c1O | inactive: -2.08%
CC(/C=C/c1ccco1)=N\NC(=O)c1cc(Cl)ccc1O | inactive: 4.68%

SMILES | growth rescue (activation)
COc1ccc(CNC(=O)CN(C(=O)c2csnn2)c2cccc3ccccc23)cc1 | inactive: 8.81%
CCOC(=O)c1ccc(NC(=O)c2cccc(S(=O)(=O)N3CCN(C(C)=O)CC3)c2)cc1 | inactive: 3.69%
Cc1noc(C)c1COC(=O)c1cc(S(=O)(=O)N2CCOCC2)ccc1Cl | inactive: -3.51%
O=C(NN(C(=O)c1ccccc1)c1ccccc1)c1ccccc1 | inactive: 22.4%
NC1=NC(=O)/C(=C\c2cccnc2)S1 | inactive: -12.2%
O=C(O)c1cccc(Cn2c(Cl)c(/C=N/NC(=O)c3cccc(O)c3)sc2=O)c1 | inactive: 5.71%
CC(c1ccccc1)N1CCC(CNC(=S)Nc2cccc(Cl)c2)C1 (stereo not drawn) | inactive: 1.2%
Cc1cc(C)c2c(CN3CCCCC3)cc(=O)oc2c1 | inactive: -1.02%
Cc1ccccc1C(=O)NNC(=O)C1CCN(c2ncccn2)CC1 | inactive: 0.889%
NC(c1ccccc1)c1cccnc1 (stereo not drawn) | inactive: 2.65%
Cc1sc2nc(COC(=O)c3cccc(OC(F)F)c3)[nH]c(=O)c2c1C | inactive: 20.8%
COC(CNC(=O)c1ccc2c(c1)ncn2-c1cccc(C)c1)OC | inactive: 11.9%
Cc1occc1C(=O)N/N=C/c1ccc(-c2ccccc2)cc1 | inactive: -45.9%
CCN(CC)S(=O)(=O)c1ccc(C(=O)NCCN2C(=O)S/C(=C\c3cccnc3)C2=O)cc1 | inactive: -1.35%
CCC(C)NS(=O)(=O)c1ccc(N)cc1 (stereo not drawn) | inactive: -2.62%
Cc1onc(-c2ccccc2Cl)c1C(=O)NNC(=O)c1ccc(F)cc1 | inactive: -2.8%
Cc1noc(NS(=O)(=O)c2ccc(NC(=O)COc3ccc(C#N)cc3)cc2)c1C | inactive: 16.5%
CC1(c2ccccc2Cl)NC(=O)N(CC(=O)Nc2ccccc2OC(F)F)C1=O (stereo not drawn) | inactive: 0.129%
O=C(c1ccco1)N1CCN(CCCCOc2ccc(F)cc2)CC1 | inactive: 15.9%
Cc1ccc2nc(NC(=O)C3CC(=O)N(Cc4ccco4)C3)sc2c1 (stereo not drawn) | inactive: -9.08%

From PubChem BioAssay AID1347073 (National Center for Advancing Translational Sciences (NCATS), 2019)
